In ChEMBL document CHEMBL4888484, “Replenishing the malaria drug discovery pipeline: Screening and hit evaluation of the MMV Hit Generation Library 1 (HGL1) against asexual blood stage Plasmodium falciparum ,using a nano luciferase reporter read-out” (2022):
Hit rate of the full screen: of about 150,000 compounds, about 540 (0.36%) showed an effect of 50% or more. The list shows a part of the results.

What follows are compounds tested on Plasmodium falciparum (assay: Primary screen in NF54 nanoGlo assay, in single point, at 2uM, 72h; a lower Z score goes with more inhibition). Conditions: timepoint 72 hour.
Assay type: functional, Erythrocyte

Structure (SMILES)	% Inhibition	Z score
Cc1cc(C)nc(N2CCC[C@H](C(=O)Nc3ccc(N4CCCS4(=O)=O)cc3)C2)n1	5%	-0.93
Cc1ccnc(N2CCC[C@@]3(CCC(=O)N(Cc4cnc(C)cn4)C3)C2)c1	-8%	1.58
CCCOCCCNc1c(-c2ccc(OC)c(OC)c2)cnc2ncnn12	0%	0.03
COc1ccc(-c2onc(C)c2C(=O)NCCOc2ccccc2)cc1	38%	-5.08
COCc1nc([C@H]2CCCN(CC(N)=O)C2)n(CC(C)(C)O)n1	-13%	2.24
Cc1nnc(CN(C)Cc2cc(Cl)ccc2Cl)n1C	-17%	3.44
O=S(=O)(c1ccccc1)N1CC[C@H](c2nc(-c3ccccc3)no2)C1	-5%	0.95
Nc1cc(C(=O)O)cc(C(F)(F)F)c1	-2%	0.33
O=C(CCn1cncn1)Nc1ccccn1	-11%	1.54
CC[C@H](C)NC(=O)Cn1nc2ccc(C(=O)NCc3ccccc3)cn2c1=O	-24%	2.07
Cc1ccc(CS(=O)(=O)Cc2nnnn2-c2ccccc2)cc1	-17%	1.67
CC(=O)Nc1ccc(S(=O)(=O)N2CC(OCc3cccc(F)c3)C2)cc1	-13%	2.42
Fc1ccc(NCc2cc(-c3ccccc3)[nH]n2)c(F)c1	-6%	0.55
Cc1sc(-c2ccn[nH]2)cc1NC(=O)c1ccc(F)cc1	-4%	0.36
C[C@@H](c1ccc(S(C)(=O)=O)cc1)N1CCC(n2cncn2)CC1	-8%	1.46
CCCN(CC(=O)Nc1cccc(S(=O)(=O)N2CCOCC2)c1)S(=O)(=O)c1ccc(Cl)c(Cl)c1	-15%	2.48
CC[C@H]1c2ccsc2CCN1CCS(=O)(=O)c1ccc(Cl)cc1	-11%	1.5
CCN(C[C@H]1CCOC1)C(=O)CCc1nc(-c2ccsc2)no1	-3%	0.36
CCc1cc(Cl)cnc1NC(=O)c1cccn(CC(C)C)c1=O	-6%	1.14
CN(CC1CCCC1O)C(=O)c1cccc2ccc(O)nc12 (centres undefined)	0%	-0.03
COc1ccccc1[C@H]1CN(C(=O)c2ccc3cccnc3c2)C[C@@H]1C(=O)O	-4%	0.68

Structure (SMILES)	% Inhibition	Z score
CN(C(=O)c1cccn(Cc2cccc(F)c2)c1=O)c1ccccc1	-21%	2.72
CCCCc1noc(CS(=O)(=O)Cc2cccc3ccccc23)n1	-6%	1
Cc1ccc(S(C)(=O)=O)cc1NC(=O)N1CCCC[C@@H]1CN1CCCC1	-11%	1.43
C[C@@H](c1ccccn1)N(Cc1ccccc1)C(=O)C1CCCC1	-13%	1.74
CNS(=O)(=O)CC(=O)N1CCC(c2ccsc2)CC1	-8%	0.76
Cc1cc(C)cc(C(=O)N2C[C@@H]3CC[C@H]2CN(Cc2cscn2)C3)c1	-6%	1.03
O=C(Nc1ccc2c(c1)OCCO2)c1cccc2c1C(=O)N(C1CCCCC1)C2	10%	-1.33
O=C1ON=C2C3CC4CC12CC1(C3)C(=O)ON=C41	-20%	2.58
Cc1noc(C(=O)N2CCN(Cc3ccc4c(c3)OCO4)CC2)c1Cl	-8%	1.24
Cc1ccc(C(=O)NC2CC2)cc1NS(=O)(=O)c1ccc2c(c1)CCCC2	-11%	1.16
Cn1cc(C[C@@H](CNC(=O)c2cccc(Cl)c2F)C(N)=O)cn1	-10%	0.83
CC(C)C[C@H](OC(=O)c1cccnc1)c1ccccn1	-4%	0.41
O=C(Nc1nc(CCCc2c[nH]c3ccccc23)n[nH]1)c1ccccn1	6%	-0.72
Cc1nccc(OC2CCN(S(=O)(=O)c3ccc4c(c3)CCO4)CC2)n1	2%	-0.28
O=C1NC2(CCN(S(=O)(=O)c3ccc(F)c(F)c3)CC2)Nc2ccccc21	-13%	1.31
C#CCCC1(CCC(=O)N2C[C@H]3CCCC[C@H]3C2)N=N1	-2%	0.29
C[C@H]1CN(c2cccc(Cl)c2C#N)CCCO1	-12%	1.41
CCc1c(C)nn(C)c1NC(=O)C[C@H]1C(=O)NCCN1Cc1ccccc1	-11%	2.01
CCOc1ccc(S(=O)(=O)N[C@H]2CC[C@@H](CC(=O)O)C2)c(C)c1	-1%	0.16
CC(=O)[C@H]1CCN(c2nc(C)cc(C)n2)C1	-12%	2.26
CC1(C)CN(C(=O)Nc2cnn(-c3ncc(Cl)cc3Cl)c2)CC(C)(C)O1	-14%	1.58
